# Measured values as given in publication PMC5700166.
# The entries are a selection whose mix differs from that of the whole data set. The list includes weakly bound sequences.
# Experiments:
# Test in all cases: protein-binding microarray (PBM)
# Settings in all cases: PBM: ~300 nM protein, 6 mM HEPES pH 7.8, 80 mM KCl, 0.5 mM EDTA, 0.5 mM EGTA, 6% glycerol, 35 ng/ul poly-dIdC, 1% milk, 1 h, room temperature; Ap Aiptasia and Nv Nematostella (sea anemones) / Co Capsaspora / Aq Amphimedon (sponge) / Dm Drosophila / Hu human; RHD is the Rel homology domain; high values mean tight binding; most listed sequences are background and not binding sites; double strand, one strand shown
# GST-Ap-NF-kB RHD = biological target: T1, GST-Ap-NF-kB RHD (UniProt A0A913YAJ5)
# T1 sequence: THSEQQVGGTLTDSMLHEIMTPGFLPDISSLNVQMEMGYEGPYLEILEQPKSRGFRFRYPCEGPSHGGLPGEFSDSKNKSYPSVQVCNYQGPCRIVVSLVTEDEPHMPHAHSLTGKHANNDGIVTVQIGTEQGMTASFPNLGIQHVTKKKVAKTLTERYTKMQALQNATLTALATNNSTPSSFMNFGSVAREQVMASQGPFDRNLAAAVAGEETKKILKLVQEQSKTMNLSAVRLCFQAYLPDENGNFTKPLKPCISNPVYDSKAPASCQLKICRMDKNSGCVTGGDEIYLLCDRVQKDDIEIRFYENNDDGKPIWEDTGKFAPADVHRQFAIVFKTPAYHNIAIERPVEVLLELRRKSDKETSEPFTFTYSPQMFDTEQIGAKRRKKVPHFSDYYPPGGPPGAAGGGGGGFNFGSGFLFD
# GST-Co-NF-kB = biological target: T2, GST-Co-NF-kB (UniProt F1ARL5)
# T2 sequence: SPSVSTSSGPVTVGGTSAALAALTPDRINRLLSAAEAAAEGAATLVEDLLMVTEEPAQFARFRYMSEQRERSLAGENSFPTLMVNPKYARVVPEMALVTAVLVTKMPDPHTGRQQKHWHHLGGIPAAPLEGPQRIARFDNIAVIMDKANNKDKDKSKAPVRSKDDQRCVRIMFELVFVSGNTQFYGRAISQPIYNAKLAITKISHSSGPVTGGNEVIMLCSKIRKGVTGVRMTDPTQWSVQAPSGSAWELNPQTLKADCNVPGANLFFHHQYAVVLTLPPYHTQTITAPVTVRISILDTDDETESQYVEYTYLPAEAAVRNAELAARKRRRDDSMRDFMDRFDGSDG
# GST-Dm-Relish = biological target: T3, GST-Dm-Relish (UniProt Q94527)
# T3 sequence: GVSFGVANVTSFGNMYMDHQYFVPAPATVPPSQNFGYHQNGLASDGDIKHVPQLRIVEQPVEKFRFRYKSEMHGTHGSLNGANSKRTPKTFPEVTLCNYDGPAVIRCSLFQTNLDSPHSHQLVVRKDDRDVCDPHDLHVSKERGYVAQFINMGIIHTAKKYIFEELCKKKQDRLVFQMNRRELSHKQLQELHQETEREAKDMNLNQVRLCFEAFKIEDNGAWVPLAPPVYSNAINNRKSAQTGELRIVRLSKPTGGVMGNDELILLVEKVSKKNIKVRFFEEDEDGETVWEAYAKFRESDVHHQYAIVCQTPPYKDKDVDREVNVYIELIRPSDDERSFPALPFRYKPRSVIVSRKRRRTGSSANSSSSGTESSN
# GST-Aq-NF-kB = biological target: T4, GST-Aq-NF-kB (UniProt A9Y5G7)
# T4 sequence: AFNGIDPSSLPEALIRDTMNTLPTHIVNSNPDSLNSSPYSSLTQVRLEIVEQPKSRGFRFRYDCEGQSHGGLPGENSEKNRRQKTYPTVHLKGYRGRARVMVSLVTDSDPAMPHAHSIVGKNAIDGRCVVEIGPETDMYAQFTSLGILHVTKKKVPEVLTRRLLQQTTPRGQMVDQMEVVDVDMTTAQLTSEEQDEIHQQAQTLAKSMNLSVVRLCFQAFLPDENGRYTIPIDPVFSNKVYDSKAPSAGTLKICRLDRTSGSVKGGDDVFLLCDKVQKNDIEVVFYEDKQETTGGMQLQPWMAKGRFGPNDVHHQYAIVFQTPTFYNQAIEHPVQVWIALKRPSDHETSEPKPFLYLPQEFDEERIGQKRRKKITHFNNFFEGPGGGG
Sequence,binding signal (GST-Ap-NF-kB RHD) [z-score],binding signal (GST-Co-NF-kB) [z-score],binding signal (GST-Dm-Relish) [z-score],binding signal (GST-Aq-NF-kB) [z-score]
CCGATTAACATCAGGGAAGCCCATGATGTTAATCGGGTCTTGATTCGCTTGACGCTGCTG,1.18,0.584,8.29,3.64
CCGATTAACATCATACTTCCCCATGATGTTAATCGGGTCTTGATTCGCTTGACGCTGCTG,3.97,4.69,3.18,3.58
CCGATTAACATCAAAATTTACCGTGATGTTAATCGGGTCTTGATTCGCTTGACGCTGCTG,0.895,1.05,,2.12
CCGATTAACATCACGTGGGGCGTTGATGTTAATCGGGTCTTGATTCGCTTGACGCTGCTG,0.973,0.69,0.692,0.97
CCGATTAACATCACGGGATTTTCTGATGTTAATCGGGTCTTGATTCGCTTGACGCTGCTG,5.11,1.98,,5.2
CCGATTAACATCAAAGAGGAGTCTGATGTTAATCGGGTCTTGATTCGCTTGACGCTGCTG,-0.112,0.441,-0.611,-0.517
CCGATTAACATCAGGAAATAACCTGATGTTAATCGGGTCTTGATTCGCTTGACGCTGCTG,0.652,-0.297,3.31,4.91
CCGATTAACATCAGGGGAAGGACTGATGTTAATCGGGTCTTGATTCGCTTGACGCTGCTG,4.32,4.12,8.23,5.22
CCGATTAACATCAAGTCCCCCAATGATGTTAATCGGGTCTTGATTCGCTTGACGCTGCTG,4.26,3.84,,3.76
CCGATTAACATCAGGGACATACCTGATGTTAATCGGGTCTTGATTCGCTTGACGCTGCTG,2.52,0.808,,5.64
CCGATTAACATCAGGAAATTGCCTGATGTTAATCGGGTCTTGATTCGCTTGACGCTGCTG,-0.349,-0.11,-0.155,0.153
